In the supplement of paper PMC11417369:
The list shows a part of the results.

The sequences below were run on PfSIP2 AP2 domain 1 (GST-tagged) (assay: gcPBM binding intensity (ln(normalized median fluorescence intensity)); higher = stronger DNA binding).
Outline: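 Binding intensity values are the highest Masliner-normalised natural-log median intensity among replicate spots of either probe orientation. The binding step lasted 1 h in 1× PBS with 1% milk, 0.2 mg/ml BSA, 0.5% salmon testes DNA and 0.03% Triton X-100, using GST-tagged P. falciparum DNA-binding domains expressed in E. coli on an Agilent 4 × 180k array of primer-extended double-stranded 36-bp intergenic genomic probes plus negative controls. Alexa488 anti-GST antibody and a 488 nm scan detected bound protein.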
With “TTTTTTTTTTATTTTGCACACTTCTAATTTAGTTCT [CACACA_site5828]” the “gcPBM binding intensity (ln)” value was 7.37. In the case of “AAAAAAAAAAAAGATTGTACAGAATACTTTTAAAAT [XGTACX_site3576]”, the “gcPBM binding intensity (ln)” value was 6.86. In the case of “AAGTTAATGAAAAAATGTACCCAGAGTATTTTAAAA [XGTACX_site2997]”, the “gcPBM binding intensity (ln)” value was 6.82. For “TGGGAAAATAATATTTATTTTATATATAAATATATA [CACACA_negctrl_site121]”, the “gcPBM binding intensity (ln)” value was 6.81. For “AAAATACTAGATAGGGGAAAAAAAAAAAAAAAAAAA [CACACA_negctrl_site1732]”, the “gcPBM binding intensity (ln)” value was 6.96. In the case of “TATTGTAATATTAGCACACATTACCTCACTACAAAT [CACACA_site5419]”, the “gcPBM binding intensity (ln)” value was 7.14. “AACATGAAAATATATGCATTTGTATATATATATATA [TGCATGCA_negctrl_site16]” was tested, and the “gcPBM binding intensity (ln)” value was 9.54. “AATAAAACCCCGAAATCACACATTAAATGAAAAATA [CACACA_site4732]” was tested, and the “gcPBM binding intensity (ln)” value was 6.84. With “ATAAATGATAAAATTGCATGTGAATGTGAAAATATT [TGCATGCA_site251]” the “gcPBM binding intensity (ln)” value was 6.93. For “AAAGCACCCATGCACACACACAAAGGAAAAGAAAAA [CACACA_site6249]”, the “gcPBM binding intensity (ln)” value was 9.4. For “ATAAAAAATAAATATATACATACATACATACATATA [XGTACX_negctrl_site507]”, the “gcPBM binding intensity (ln)” value was 6.68. In the case of “ATAAAACAAAAATATAAACACACATACATTGGTTTT [CACACA_site8809]”, the “gcPBM binding intensity (ln)” value was 6.85. “TTTTCAAAAATATACACACACATAAATATAGGTATA [CACACA_site6506]” was tested, and the “gcPBM binding intensity (ln)” value was 6.89. With “TTGATTTACTATAGATGTACGTAAAATATAAATAAA [XGTACX_site8256]” the “gcPBM binding intensity (ln)” value was 7.1. With “AATTTAAAAGAAAAAGAAAAATAATAAACAGAAGCA [XGTACX_negctrl_site503]” the “gcPBM binding intensity (ln)” value was 7.01. In the case of “TTTTCGGATAATAATTGTACGAAACATTTAAAAAAA [XGTACX_site8898]”, the “gcPBM binding intensity (ln)” value was 6.75. With “TTGTAAGAAAAACACACACACACATATATATATATA [CACACA_site795]” the “gcPBM binding intensity (ln)” value was 9.35. With “TATATAATATATATATGTACACATATACATTTTTAT [XGTACX_site2832]” the “gcPBM binding intensity (ln)” value was 7.16. In the case of “TAAATAGTTATAAAAGTGCAAAAAAAAAAAAAAAAA [GTGCAC_site9550]”, the “gcPBM binding intensity (ln)” value was 8.3. With “ACTCAAAATTATAATTGTACAAATGCTTTGTTTAAT [XGTACX_site3437]” the “gcPBM binding intensity (ln)” value was 7.12. “ATCATATATGTTATTACACACGTTATGTTATTATAA [CACACA_site2712]” was tested, and the “gcPBM binding intensity (ln)” value was 7.13. In the case of “TTAATTTCAAGTAGAAGTACTTTTATGATTGTGAGG [XGTACX_site1247]”, the “gcPBM binding intensity (ln)” value was 7.07. “GTGCATAGATGATATACACACAATATAATAGTATGT [CACACA_site5373]” was tested, and the “gcPBM binding intensity (ln)” value was 8.66. “TATAATTTAGCTTGTGCATGCAGGTGCTACATTTGT [TGCATGCA_site217]” was tested, and the “gcPBM binding intensity (ln)” value was 9.22. In the case of “GTTTCAAAATTAAACACACACAAAAAAAAAAAAAAA [CACACA_site2680]”, the “gcPBM binding intensity (ln)” value was 7.05. “TATTATATCTTTATTATTCATCTAAAATTTGTATTT [TGCATGCA_negctrl_site233]” was tested, and the “gcPBM binding intensity (ln)” value was 6.67. For “ACATTATATCTAAGTACACACATTAATTTTTTTTTT [CACACA_site7850]”, the “gcPBM binding intensity (ln)” value was 7.42. For “CTATAACCTCTGTTCACACATATATCATAATTTACA [CACACA_site5446]”, the “gcPBM binding intensity (ln)” value was 7.17. In the case of “TTTATTTTGATTTAATGTACAAATAGTAAAACAAAA [XGTACX_site4789]”, the “gcPBM binding intensity (ln)” value was 7.21. For “TATTTAAAAGCATATACACACAACTGGAATGAAAAG [CACACA_site6128]”, the “gcPBM binding intensity (ln)” value was 7.42. With “TTTTTTTAAACTGAAAGTACTTATTCCAAGAAAATA [XGTACX_site50]” the “gcPBM binding intensity (ln)” value was 6.93. “ATATATATATCAACAACACACGATTAACTAAAAAAA [CACACA_site302]” was tested, and the “gcPBM binding intensity (ln)” value was 8.1. For “ATAATGACTAAATTTAAACACACAAGGGGAGTTTAC [CACACA_site8209]”, the “gcPBM binding intensity (ln)” value was 6.75. In the case of “GCATAAGAAATAAATAGTACACACATAGACACACAC [XGTACX_site3095]”, the “gcPBM binding intensity (ln)” value was 8.19. In the case of “TATATATATATATACACACACATATATATATATATA [CACACA_site1346]”, the “gcPBM binding intensity (ln)” value was 9.26. For “ATAAGATATGTATATACACACATTTATTTACATATA [CACACA_site3263]”, the “gcPBM binding intensity (ln)” value was 6.95. With “AAAACAAATGAGTACACACACATAAAAGTTGAAAAT [CACACA_site6238]” the “gcPBM binding intensity (ln)” value was 6.98. In the case of “CGCACAAAAATATACACACACACATCTATATTTATT [CACACA_site7675]”, the “gcPBM binding intensity (ln)” value was 7.22. For TACCCATATTAATATGTGCGCATATAAAAGTCAAAC, the “gcPBM binding intensity (ln)” value was 8.01. In the case of “ATTTTTTTTATTTTTTCAATATATATATATATATAT [CACACA_negctrl_site1444]”, the “gcPBM binding intensity (ln)” value was 9.48. In the case of “GAAATAGAAATAAAATAGGCATACAATAGAACTAAG [TGCATGCA_negctrl_site537]”, the “gcPBM binding intensity (ln)” value was 6.94. For “TTATATATATATAATACACACATAATAATATATTTA [CACACA_site3038]”, the “gcPBM binding intensity (ln)” value was 7.09. “ATATATGAGCAAAAATATATAAGATAACACATAAAT [CACACA_negctrl_site167]” was tested, and the “gcPBM binding intensity (ln)” value was 7.04. With “TTATATATATATTATAGTACATATATAATATAGTAA [XGTACX_site6869]” the “gcPBM binding intensity (ln)” value was 6.94.
